Data: PubChem BioAssay AID602310 (National Center for Advancing Translational Sciences (NCATS), 2012)
Where “and” joins values, the source holds several entries; their conditions need not be identical. Equal values may be shown once. In all, about 410,000 compounds went through this assay and about 310 (0.076%) were called active. Inconclusive means that the source gave no clear call. Such entries were picked first, then a sample of the others. Calls come from the whole dose curve; as a rule, active = well fitted curve in the direction sought with a large enough effect; inconclusive = small, poorly fitted or top-dose-only effect; inactive = flat fitted curve, though single readings scatter. Potencies beside an inconclusive call are fits to weak or partial responses and may not hold up.

Biological target: DNA dC->dU-editing enzyme APOBEC-3G (Homo sapiens) (UniProt Q9HC16)
Chain of UniProt Q9HC16 (Q9HC16 whole entry, looked up): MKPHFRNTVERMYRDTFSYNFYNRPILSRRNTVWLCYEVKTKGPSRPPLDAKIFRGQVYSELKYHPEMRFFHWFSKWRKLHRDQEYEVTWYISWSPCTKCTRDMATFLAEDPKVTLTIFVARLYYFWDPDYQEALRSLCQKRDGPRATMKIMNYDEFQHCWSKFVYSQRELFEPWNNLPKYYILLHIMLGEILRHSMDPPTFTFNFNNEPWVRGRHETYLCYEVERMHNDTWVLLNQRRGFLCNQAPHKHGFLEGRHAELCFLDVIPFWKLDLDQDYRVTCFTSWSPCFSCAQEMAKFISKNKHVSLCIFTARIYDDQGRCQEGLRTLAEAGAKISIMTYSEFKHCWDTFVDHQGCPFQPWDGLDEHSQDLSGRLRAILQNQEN
Test: qHTS for Inhibitors of Vif-A3G Interactions: qHTS; note: nearly all actives have a fitted effect of over 60% in size
Conditions: HeLa A3G-eYFP + Vif (tagged APOBEC3G with the HIV-1 protein that degrades it), YFP fluorescence, overnight; series mostly up to 46.1 µM
Method in brief: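 Read-out is eYFP fluorescence (Ex 488/Em 500-530) from Vif-expressing HeLa A3G-eYFP cells; more signal means A3G escaped Vif-mediated degradation. Cells plated overnight, compound pinned in, incubated overnight at 37 deg C.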
Potency is the fitted concentration of half-maximal effect; tags give direction and shape of the fitted curve.

Compound | Potency
CCOc1cccc(-c2nnc3sc(C4CCCCC4)nn23)c1 | inactive
COc1ccc2[nH]c3c(NCc4ccco4)ncnc3c2c1 | inconclusive: 11.2 µM [inhibitor, single point]
Cc1ccc(NC(=O)Cn2cc(S(=O)(=O)N3CCN(c4ccccc4F)CC3)c3ccccc3c2=O)cc1F | inactive
Cc1cc(C)nc(NS(=O)(=O)c2ccc(NC(=O)CSc3ncn[nH]3)cc2)n1 | inconclusive: 4.47 µM [inhibitor, single point]
Oc1ccc(-c2csc(-c3ccccc3)n2)cc1O | inconclusive: 20 µM [inhibitor, single point]
CN=C1c2cc3cc(OC)ccc3n2CCN1Cc1ccccc1 | inconclusive: 12.6 µM [inhibitor, single point]
CC(=O)Nc1ccc(CC(=O)NCCC(c2ccccc2)c2ccccc2)cc1 | inconclusive: 20 µM [inhibitor, partial curve, poor fit]
COc1ccc(CCNc2nnc(Sc3nnnn3-c3ccccc3)s2)cc1OC | inconclusive: 2.51 µM [inhibitor, partial curve, poor fit]
CCN1CCC(O)(/C=C/c2ccc(C(C)C)cc2)C(C(=O)/C=C/c2ccc(C(C)C)cc2)C1 (configuration not stated) | inconclusive: 4.47 µM [inhibitor, single point]
Nn1cnn(Cc2ccccc2)c1=S | inactive
N#CC(=Cc1ccccn1)c1nc(-c2ccc(Cl)cc2)cs1 | active: 5.62 µM
CN(C)c1ccc(CNC(=O)C2(C)Cc3c(-c4ccc5c(c4)OCO5)ccnc3O2)cc1 (configuration not stated) | inconclusive: 2.51 µM [inhibitor, full curve, poor fit]
Cc1ccc(-n2ncc3c(=O)[nH]c(SCC(=O)N4CCCc5ccccc54)nc32)cc1 | inactive
N#C/C(=C\c1ccc(O)c(O)c1)C(=O)Nc1ccccc1 | inactive
CCn1c(CCCCc2n[nH]c(=S)n2CC)n[nH]c1=S | inactive
NC(=O)CSc1nc(C2CC2)nc2sc3c(c12)CCCC3 | inactive
Cc1cccc(NC(=O)/C(C#N)=C\c2ccc(C(=O)O)cc2)c1 | inactive
O=c1c2ccccc2nc(COc2ccccc2)n1/N=C/c1c[nH]c2ccccc12 | inactive
O=c1[nH]c(NCc2ccco2)nnc1Cc1ccccc1Cl | active: 12.6 µM
COc1ccc(CNCc2ccccc2C(F)(F)F)cc1 | inactive
O=C(N/N=C/c1c[nH]c2ccccc12)C1COc2ccccc2O1 (configuration not stated) | inconclusive: 5.01 µM [inhibitor, partial curve]
CC(=O)c1cccc(-c2ccnc3c2CC(C(=O)NCc2ccc(F)c(F)c2)O3)c1 (configuration not stated) | inconclusive: 2 µM [inhibitor, full curve, poor fit]
CC1(C(=O)NCC2CCOCC2)Cc2c(-c3cccc(C(N)=O)c3)ccnc2O1 (configuration not stated) | inconclusive: 35.5 µM [inhibitor, single point]
CCN(CC)c1ccc(/C=N\NC(=O)c2cccc3cc[nH]c23)cc1 | inconclusive: 35.5 µM [inhibitor, single point]

Compound | Potency
Cn1cc(/C=C/c2cc[n+](C)cc2)c2cc(Cl)ccc21 | inconclusive: 3.55 µM [inhibitor, partial curve, poor fit]
COc1ccccc1CNc1nc(NCc2ccccc2F)c2sccc2n1 | inactive
CC1=CC(=C2C(=O)c3ccccc3C2=O)C=C(C)O1 | inconclusive: 35.5 µM [inhibitor, single point]
Cc1cccc(C(=O)Nc2nc3nc(-c4ccccc4)cc(=O)n3[nH]2)c1 | inactive
COc1ccc(C)cc1NC(=O)C(c1ccccc1)N1CCN(CC(=O)N2CCOCC2)CC1 (configuration not stated) | inactive
CCOC(=O)Cn1nnnc1CN(Cc1ccc(OC)cc1)Cc1cc2cc(C)cc(C)c2[nH]c1=O | inactive
Cc1ccc(S(=O)(=O)c2nc(Cc3ccccc3)oc2N2CCOCC2)cc1 | inactive
Cc1ccc(Cl)cc1N1CCN(C(=O)c2ccc(NS(=O)(=O)c3c(C)noc3C)cc2)CC1 | inactive
COc1cc(C(=O)/C=C/c2cccnc2)ccc1O | inconclusive: 10 µM [inhibitor, partial curve, poor fit]
CCOc1ccc2[nH]c3c(N4CCc5ccccc5C4)ncnc3c2c1 | inconclusive: 4.47 µM [inhibitor, single point]
CN(C)c1ccc(C(=O)C(O)c2ccccc2)cc1 (configuration not stated) | inactive
COc1ccc(OC)c2sc(N(CCCN(C)C)C(=O)CCS(=O)(=O)c3ccccc3)nc12 | inconclusive: 25.1 µM [inhibitor, single point]
O=C(O)/C=C/C(=O)Nc1cccc2c1-c1ccccc1C2=O | inconclusive: 35.5 µM [inhibitor, single point]
COc1ccccc1CN(Cc1cc2cc(C)ccc2[nH]c1=O)Cc1nnnn1Cc1ccco1 | inactive
CC(C)c1ccc(NC(=O)Nc2cnccn2)cc1 | inconclusive: 3.98 µM [inhibitor, full curve]
Oc1ccc(NCc2cccc(OCc3ccc(F)cc3)c2)cc1 | inconclusive: 28.2 µM [inhibitor, single point]
C=CCOC(/C=C/c1ccccc1)C[Si](C)(C)C (configuration not stated) | inactive
CCOc1ccc(CN(C(=O)c2ccccn2)c2ccc(OC)c(Cl)c2)cc1 | inconclusive: 15.8 µM [inhibitor, single point]
COc1cccc(C(=O)Nc2ncc3c(n2)CC(c2ccc(OC)cc2OC)CC3=O)c1 (configuration not stated) | inconclusive: 5.01 µM [inhibitor, full curve]
C=C(CC)C(=O)c1ccc(OCC(=O)O)c(Cl)c1Cl | inconclusive: 7.08 µM [inhibitor, partial curve, poor fit] and inconclusive: 5.01 µM [inhibitor, partial curve]
O=C(N/N=C/c1c[nH]c2ccc(Br)cc12)c1ccc2c(c1)OCO2 | inconclusive: 10 µM [inhibitor, partial curve, poor fit]
Cc1nonc1C(=O)N/N=C/c1ccc([N+](=O)[O-])o1 | inconclusive: 15.8 µM [inhibitor, single point]
CCc1ccc(S(=O)(=O)Nc2ccc(O)c3c(=O)cc(-c4ccccc4Cl)oc23)cc1 | inactive
